# Some of the results follow. Sequences were assembled here from the parent chain. Inactive controls read about 0.05.
# B1: TEV protease; numbered along this chain (parent)
# chain: MGESLFKGPRDYNPISSSICHLTNESDGHTTSLYGIGFGPFIITNKHLFRRNNGTLVVQSLHGVFKVKDTTTLQQHLVDGRDMIIIRMPKDFPPFPQKLKFREPQREERICLVTTNFQTKSMSSMVSDTSCTFPSGDGIFWKHWIQTKDGQCGSPLVSTRDGFIVGIHSASNFTNTNNYFTSVPKNFMELLTNQEAQQWVSGWRLNADSVLWGGHKVFMVKPEEPFQPVKEATQL
# Variants of: B1
# Assay: raw area under fraction-flipped curve 0-4 h after induction (AUC4h, not background-subtracted), DNA-recorder readout of cleavage of the substrate (dimensionless); higher = more cleavage of the substrate by the protease variant
# Details: temperature: 34 °C; time window: 0-4 h after rhamnose induction
# 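Note: Bxb1 expression induced with 0.2% (w/v) L-rhamnose at OD600 near 0.5, cultures sampled hourly, flipped fraction per protease–substrate barcode pair counted by paired-end Illumina sequencing.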
Variant,area with substrate ENLKFQS,area with substrate ENLLFQS,area with substrate ENLNFQS,area with substrate ENLRFQS,area with substrate ENLVFQS,area with substrate ENLSFQS,area with substrate ENLFFQS,area with substrate ENLHFQS,area with substrate ENLMFQS,area with substrate ENLQFQS
P89C,0.0653,0.0529,0.0602,0.0639,0.0736,–,–,–,–,–
P89A,0.0753,–,–,–,–,0.0579,–,–,–,–
F6T,0.0727,–,–,–,–,0.0598,0.118,0.0703,0.0981,0.0533
D79Q,0.0939,–,–,–,–,0.052,–,0.0988,–,–
L235C,0.074,0.0669,0.056,–,0.0504,0.0672,–,–,–,–
L235F,–,–,–,0.0793,–,–,0.104,0.0132,0.0872,–
L235Y,–,–,–,–,–,0.0703,0.112,–,–,–
T174E,–,–,0.0758,–,–,–,–,–,–,–
T174F,0.0723,–,–,–,–,–,–,0.0657,–,0.0639
G214F,–,–,–,–,–,–,–,–,0.0684,–
G214W,0.0661,–,–,–,–,–,–,0.0749,–,–
K90A,–,–,0.0792,–,–,–,–,–,–,–
Q198G,0.0882,–,0.0721,0.0702,0.084,–,0.0802,–,–,0.0694
W212N,–,–,–,–,0.0548,–,–,–,–,–
D11T,–,–,0.0656,0.0874,–,0.0788,0.0969,0.064,–,–
N206P,–,–,0.0946,–,–,–,–,–,–,–
C131F,–,–,–,–,–,–,–,0.0863,–,–
C131P,0.0982,–,0.0749,–,–,–,0.0809,–,–,–
C131H,–,–,–,–,–,–,0.0678,–,–,–
C131Q,–,–,–,–,–,–,–,–,0.074,–
V210E,0.0582,–,–,0.0631,–,–,0.0654,–,–,0.0658
S201H,0.066,–,0.0519,0.069,–,–,0.0573,0.0753,–,–
F92G,0.0834,–,–,–,0.0589,0.0486,0.0564,–,–,–
Q194W,–,–,–,0.0629,–,–,0.0867,0.063,–,0.0725
P93L,0.0719,0.0904,0.0749,–,–,0.059,0.095,–,–,–
S154N,–,–,0.0489,–,–,–,–,–,–,–
N53L,0.0646,0.0421,–,–,–,0.0357,–,–,–,0.0523
S182C,–,0.0614,0.0687,–,–,0.0509,–,0.134,–,0.0644

Variant,area with substrate ENLKFQS,area with substrate ENLLFQS,area with substrate ENLNFQS,area with substrate ENLRFQS,area with substrate ENLVFQS,area with substrate ENLSFQS,area with substrate ENLFFQS,area with substrate ENLHFQS,area with substrate ENLMFQS,area with substrate ENLQFQS
S182M,–,–,–,–,–,–,–,0.0576,–,–
T181K,0.0702,–,0.0622,–,–,0.0613,0.0668,–,0.024,–
T181V,–,0.0585,0.0755,–,0.0562,0.0555,–,0.0821,–,0.062
T181C,0.0575,–,0.0665,0.132,–,–,0.101,–,–,–
T181I,0.0428,0.053,0.0562,–,–,–,–,0.0703,–,–
K230A,–,–,–,–,–,–,–,0.073,–,0.0836
D137S,–,–,–,–,–,0.0839,0.0709,–,–,0.0686
G162V,–,–,–,0.0582,–,0.0655,0.0713,–,–,0.059
N178Y,–,0.104,0.0724,0.11,–,0.0861,0.112,0.111,–,–
N178M,–,0.0785,–,–,0.0936,0.0882,–,0.0761,–,–
G35D,–,0.0355,–,–,–,–,0.0486,0.0494,–,0.0252
G35I,–,–,–,–,–,0.0507,–,0.0555,–,–
F65V,–,0.0574,0.0609,0.0666,–,–,–,0.08,–,–
F65Q,0.0795,–,–,0.0744,–,0.0666,–,0.0405,–,–
L190P,0.0734,–,–,–,–,–,–,0.0536,–,–
L190N,0.0727,–,0.0772,–,–,–,0.0846,0.065,–,–
S171K,–,–,–,0.0539,–,–,–,–,–,–
S171I,0.0592,–,–,–,–,–,–,–,–,–
S158L,0.1,–,0.0596,0.0666,–,–,–,0.0499,–,0.0433
R87Q,–,0.0809,–,0.0988,0.0844,0.0487,0.0206,–,–,0.0559
N116F,0.0856,–,0.111,–,0.0736,–,–,0.0767,–,–
N116T,–,–,0.0749,–,–,–,–,0.0559,–,–
N116V,0.0644,–,0.0618,0.0547,–,–,0.0836,0.0827,0.0628,0.0667
G166E,0.0565,–,–,0.0438,–,–,0.0408,–,–,–
V67G,–,0.0767,0.0594,–,0.0278,–,–,–,0.0468,0.0494
S169Y,0.0847,0.0619,–,–,0.0611,–,–,–,–,–
F38E,–,–,–,–,–,–,–,–,–,0.0536

# Same assay, conditions: temperature: 34 °C; time window: 0-4 h after rhamnose induction
Variant,area with substrate ENLPFQS,area with substrate ENLEFQS,area with substrate ENLIFQS,area with substrate ENLWFQS,area with substrate ENLTFQS,area with substrate ENLGFQS
D79Q,0.0513,–,–,–,–,–
L235C,0.0642,0.0874,0.0774,0.0711,–,–
L235F,–,–,0.0749,–,–,–
L235Y,0.0554,–,0.0576,0.0462,–,–
G214F,–,0.0635,–,–,–,–
G214W,0.0489,–,–,–,–,–
Q198G,0.0498,0.0743,–,–,–,–
W212N,0.0374,–,0.0661,–,–,–
D11T,0.067,–,–,–,–,–
N206P,0.0637,–,–,–,–,–
C131P,–,–,0.0778,–,0.0579,–
C131H,–,0.0593,–,0.0591,–,–
C131Q,–,–,0.0672,–,–,–
F92G,–,0.0665,–,–,–,–
Q194W,–,–,–,0.0682,–,0.0553
S154N,–,–,–,–,–,0.0714
N53L,–,–,0.0717,0.0656,–,–
S182C,0.0462,–,–,0.0586,–,–

Variant,area with substrate ENLPFQS,area with substrate ENLEFQS,area with substrate ENLIFQS,area with substrate ENLWFQS,area with substrate ENLTFQS,area with substrate ENLGFQS
S182M,–,–,–,–,–,0.0466
T181K,–,–,–,0.0387,–,–
T181V,–,0.0476,–,–,–,0.0694
K230A,–,–,–,0.0607,–,0.052
D137S,0.0592,–,–,0.058,–,–
G162V,–,0.0627,0.087,0.046,–,–
N178Y,–,–,0.145,–,0.0774,–
N178M,–,–,–,–,–,0.0695
G35D,–,–,0.0465,–,–,0.0322
L190P,–,0.0616,–,–,–,0.113
L190N,–,0.0363,–,0.0391,–,–
S171K,–,–,–,0.0508,–,0.0621
S171I,0.0191,–,–,–,–,–
S158L,0.0837,–,–,–,–,–
N116F,–,0.0673,–,0.0775,–,–
N116T,–,–,0.0919,–,–,–
N116V,–,–,–,–,–,0.0617
V67G,0.0305,0.031,–,–,–,0.06

# Source: the supplement of paper PMC12217912
